Data published in publication PMC11589570, “Critical assessment of LC3/GABARAP ligands used for degrader development and ligandability of LC3/GABARAP binding pockets” (Nature Communications, 2024).

How the values were obtained:
[1] = target: T1, LC3B (Homo sapiens, UniProt Q9GZQ8); assay: FP assay with Cy5-labelled p62 LIR tracer (protein titration and tracer displacement); assay type: binding; details: for normalized FP signal, p62 LIR tracer displacement: LC3B; for compound titration LC3B (displacement curve, FP signal): two replicate columns per compound
[2] = target: LC3C (Homo sapiens, UniProt Q9BXW4); assay: as above; assay type: binding; details: two replicate columns per compound
[3] = target: GABARAP (Homo sapiens, UniProt O95166); assay: as above; assay type: binding; details: two replicate columns per compound
[4] = target: GABARAPL1 (Homo sapiens, UniProt Q9H0R8); assay: as above; assay type: binding; details: two replicate columns per compound
[5] = target: T2, LC3A (Homo sapiens, UniProt Q9H492); assay: as above; assay type: binding; details: two replicate columns per compound
[6] = target: T1, LC3B; assay: FP assay with 10O5- and 8F20-based dye-linked tracers 16 and 17
[7] = target: T3, NanoLuc-fusion full-length LC3B (Homo sapiens, UniProt Q9GZQ8); assay: NanoBRET cellular target engagement assay in HEK293T cells; assay type: cell-based
T3 construct: a fluorescent donor (in this case full length LC3A and LC3B); expressed in transfected cells; host or cells: HEK293T (ATCC; CRL-11268)
Description: (§1) NanoBRET cellular target engagement assay: Constructs contained the cDNA of full-length LC3A and LC3B cloned in frame with an N-terminal NanoLuc-fusion. Plasmids were transfected into HEK293T (ATCC; CRL-11268) cells using FuGENE HD (Promega, E2312) and proteins were allowed to express for 20 h. 10O5 and 8F20-based tracers were titrated to the protein as depicted in Supplementary Fig. 4d. For competition experiments, 1 µM of the tracers was pipetted into white 384-well plates (Greiner 781 207) using an Echo 550 acoustic dispenser (Labcyte) containing LC3A/LC3B expressing transfected cells at a density of 2.5 × 10^5 cells/mL in Opti-MEM without phenol red (Life Technologies). The system was allowed to equilibrate for 2 h at 37 °C and 5% CO2 prior to BRET measurements. To measure BRET, NanoBRET NanoGlo Substrate + Extracellular NanoLuc Inhibitor (Promega, N2540) was added as per the manufacturer’s protocol, and filtered luminescence was measured on a PHERAstar plate reader (BMG Labtech) equipped with a luminescence filter pair (450 nm BP filter (donor) and 610 nm LP filter (acceptor)). Competitive displacement data were then plotted using GraphPad Prism 9.3 software using a normalized 3-parameter curve fit. A detailed step-by-step protocol for this assay is described in Schwalm..

[8] = target: T4, NanoLuc-fusion full-length LC3A (Homo sapiens, UniProt Q9H492); assay: as above; assay type: cell-based
T4 construct: a fluorescent donor (in this case full length LC3A and LC3B); expressed in transfected cells; host or cells: HEK293T (ATCC; CRL-11268)
Description: as §1

[9] = target: T2, LC3A; assay: FP assay with 10O5- and 8F20-based dye-linked tracers 16 and 17
[10] = log10 concentration [M] -3.82391
[11] = log10 concentration [M] -4.1549
[12] = log10 concentration [M] -4.60206
[13] = log10 concentration [M] -5.30103
[14] = log10 concentration [M] -5.69897
[15] = log10 concentration [M] -6.22185
[16] = log10 concentration [M] -6.69897
[17] = log10 concentration [M] -7.30103
[18] = log10 concentration [M] -7.79588
[19] = log10 concentration [M] -8.08092
[20] = 0.05% Tween20 supplemented buffer

Sequence of LC3C (Q9BXW4 1-126): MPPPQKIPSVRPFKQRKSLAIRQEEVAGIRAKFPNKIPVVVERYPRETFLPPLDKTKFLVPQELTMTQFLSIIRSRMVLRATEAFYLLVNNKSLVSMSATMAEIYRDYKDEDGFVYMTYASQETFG
Sequence of GABARAP (O95166 1-116): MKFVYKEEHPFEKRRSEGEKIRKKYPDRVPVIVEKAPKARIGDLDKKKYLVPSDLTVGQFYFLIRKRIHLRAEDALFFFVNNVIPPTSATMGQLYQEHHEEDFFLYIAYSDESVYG
Sequence of GABARAPL1 (Q9H0R8 whole entry): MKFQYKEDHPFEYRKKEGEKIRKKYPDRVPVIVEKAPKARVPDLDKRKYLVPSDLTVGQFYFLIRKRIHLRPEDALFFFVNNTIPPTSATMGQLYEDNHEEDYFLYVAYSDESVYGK

CCc1ccc(S(=O)(=O)Nc2cc(SCC(=O)O)c(O)c3ccccc23)cc1 [compound 11]
normalized FP signal, p62 LIR tracer displacement [1, 10]: 42.3684 and 49.2105
normalized FP signal, p62 LIR tracer displacement [1, 11]: 90 and 101.842
normalized FP signal, p62 LIR tracer displacement [1, 12]: 94.4737 and 100.263
normalized FP signal, p62 LIR tracer displacement ([1]; log10 concentration [M] -5): 95 and 98.1579
normalized FP signal, p62 LIR tracer displacement [1, 13]: 97.3684 and 102.895
normalized FP signal, p62 LIR tracer displacement [1, 14]: 92.1053 and 97.3684
normalized FP signal, p62 LIR tracer displacement [1, 15]: 97.1053 and 102.368
normalized FP signal, p62 LIR tracer displacement [1, 16]: 97.6316 and 101.842
normalized FP signal, p62 LIR tracer displacement [1, 17]: 97.1053 and 92.6316
normalized FP signal, p62 LIR tracer displacement [1, 18]: 98.4211 and 99.7368
normalized FP signal, p62 LIR tracer displacement [1, 19]: 96.0526 and 96.3158
compound titration LC3B (displacement curve, FP signal) [1, 10]: 42.3684 and 49.2105
compound titration LC3B (displacement curve, FP signal) [1, 11]: 90 and 101.842
compound titration LC3B (displacement curve, FP signal) [1, 12]: 94.4737 and 100.263
compound titration LC3B (displacement curve, FP signal) ([1]; log10 concentration [M] -5): 95 and 98.1579
compound titration LC3B (displacement curve, FP signal) [1, 13]: 97.3684 and 102.895
compound titration LC3B (displacement curve, FP signal) [1, 14]: 92.1053 and 97.3684
compound titration LC3B (displacement curve, FP signal) [1, 15]: 97.1053 and 102.368
compound titration LC3B (displacement curve, FP signal) [1, 16]: 97.6316 and 101.842
compound titration LC3B (displacement curve, FP signal) [1, 17]: 97.1053 and 92.6316
compound titration LC3B (displacement curve, FP signal) [1, 18]: 98.4211 and 99.7368
compound titration LC3B (displacement curve, FP signal) [1, 19]: 96.0526 and 96.3158
compound titration LC3C (displacement curve, FP signal) [2, 10]: 18.6 and 15.8
compound titration LC3C (displacement curve, FP signal) [2, 11]: 38.2 and 41.8
compound titration LC3C (displacement curve, FP signal) [2, 12]: 92 and 93
compound titration LC3C (displacement curve, FP signal) ([2]; log10 concentration [M] -5): 93.8 and 95.8
compound titration LC3C (displacement curve, FP signal) [2, 13]: 93 and 96.8
compound titration LC3C (displacement curve, FP signal) [2, 14]: 84.8 and 91.2
compound titration LC3C (displacement curve, FP signal) [2, 15]: 93.2 and 91.6
compound titration LC3C (displacement curve, FP signal) [2, 16]: 94.6 and 99
compound titration LC3C (displacement curve, FP signal) [2, 17]: 97.6 and 98
compound titration LC3C (displacement curve, FP signal) [2, 18]: 94.2 and 90.8
compound titration LC3C (displacement curve, FP signal) [2, 19]: 95.8
compound titration GABARAP (displacement curve, FP signal) [3, 10]: 11.7241 and 11.3793
compound titration GABARAP (displacement curve, FP signal) [3, 11]: 35.3448 and 39.8276
compound titration GABARAP (displacement curve, FP signal) [3, 12]: 93.9655 and 97.5862
compound titration GABARAP (displacement curve, FP signal) ([3]; log10 concentration [M] -5): 95.5172 and 97.2414
compound titration GABARAP (displacement curve, FP signal) [3, 13]: 95.6897 and 96.7241
compound titration GABARAP (displacement curve, FP signal) [3, 14]: 93.6207 and 92.4138
compound titration GABARAP (displacement curve, FP signal) [3, 15]: 98.7931 and 97.4138
compound titration GABARAP (displacement curve, FP signal) [3, 16]: 100.862 and 96.7241
compound titration GABARAP (displacement curve, FP signal) [3, 17]: 97.5862 and 96.2069
compound titration GABARAP (displacement curve, FP signal) [3, 18]: 96.0345 and 94.8276
compound titration GABARAP (displacement curve, FP signal) [3, 19]: 95.3448 and 96.8966
compound titration GABARAPL1 (displacement curve, FP signal) [4, 10]: 13.2857 and 12.1429
compound titration GABARAPL1 (displacement curve, FP signal) [4, 11]: 38 and 36
compound titration GABARAPL1 (displacement curve, FP signal) [4, 12]: 96.5714 and 97.2857
compound titration GABARAPL1 (displacement curve, FP signal) ([4]; log10 concentration [M] -5): 100.286 and 101.857
compound titration LC3A (displacement curve, FP signal) [5, 10]: 82.6316 and 91.8421
compound titration LC3A (displacement curve, FP signal) [5, 11]: 85.5263 and 99.2105
compound titration LC3A (displacement curve, FP signal) [5, 12]: 89.2105 and 103.421
compound titration LC3A (displacement curve, FP signal) ([5]; log10 concentration [M] -5): 90.7895 and 105.263
compound titration LC3A (displacement curve, FP signal) [5, 13]: 96.8421 and 102.105
compound titration LC3A (displacement curve, FP signal) [5, 14]: 93.1579 and 97.3684
compound titration LC3A (displacement curve, FP signal) [5, 15]: 98.9474 and 103.158
compound titration LC3A (displacement curve, FP signal) [5, 16]: 99.4737 and 96.8421
compound titration LC3A (displacement curve, FP signal) [5, 17]: 101.053 and 98.9474
compound titration LC3A (displacement curve, FP signal) [5, 18]: 105 and 101.842
compound titration LC3A (displacement curve, FP signal) [5, 19]: 102.632 and 101.316

O=C(CCc1ccc2n1[B-](F)(F)[N+]1=C(c3ccc[nH]3)C=CC1=C2)NCCCOCCOCCOCCCNC(=O)COc1c(Br)cc(C=C2C(=O)Nc3ccc(I)cc32)cc1Br [compound 16, N-(1-(2,6-dibromo-4-((5-iodo-2-oxoindolin-3-ylidene)methyl)phenoxy)−2-oxo-7,10,13-trioxa-3-azahexadecan-16-yl)−3-(5,5-difluoro-7-(1H-pyrrol-2-yl)−5H-4l4,5l4-dipyrrolo[1,2-c:2’,1’-f][1,3,2]diazaborinin-3-yl)propenamide]
tracer binding in repeated protein titration [6, 20]: completely abolishing the putative binding
tracer affinity (protein titration for tracer KD) ([6]; buffer lacking detergent): nanomolar
NanoBRET signal / tracer displacement ([7]; LC3B, 1 µM tracer, compound 4 for tracer 16, compound 3 for tracer 17): no BRET signal
maximum BRET increase in tracer titration ([7]; NanoLuciferase-tagged LC3B): ~ 1.3 fold
NanoBRET signal / tracer displacement ([8]; LC3A, 1 µM tracer, compound 4 for tracer 16, compound 3 for tracer 17): no BRET signal
maximum BRET increase in tracer titration ([8]; NanoLuciferase-tagged LC3A): ~ 1.3 fold
tracer binding in repeated protein titration [9, 20]: completely abolishing the putative binding
tracer affinity (protein titration for tracer KD) ([9]; buffer lacking detergent): nanomolar

“And” between values parts separate entries of the source, which are not always exact repeats. Equal entries are not always repeated.
